# Experimental data from paper PMC4242493.
# The list shows a part of the results. The list includes weakly bound sequences.
# Biological target: MaxL homodimer (UniProt P61244)
# Experiment: universal protein-binding microarray (PBM)
# Conditions: PBS-based mixture, 10 nM His-tagged protein dimer, 2% milk, 200 ng/uL BSA, 50 ng/uL salmon testes DNA, 0.02% TX-100; detection with Alexa 488 anti-His …; high values mean tight binding; most listed sequences are background and not binding sites; double strand, one strand shown
# UniProt P61244, sequence (P61244 whole entry): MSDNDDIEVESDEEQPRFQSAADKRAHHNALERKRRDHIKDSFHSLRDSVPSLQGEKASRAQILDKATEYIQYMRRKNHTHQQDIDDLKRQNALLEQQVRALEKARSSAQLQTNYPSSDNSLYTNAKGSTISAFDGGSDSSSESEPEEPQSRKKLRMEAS
row,Sequence,binding signal (normalized occupancy)
1,CGGCCATC,0.0731
2,CCGCCCCG,0.0752
3,GCCGGTGA,0.0763
4,AGGCGACA,0.0722
5,GGAACATA,0.0796
6,AATCCACC,0.079
7,ATTATTCC,0.0793
8,AAGATCCA,0.0755
9,AGACATTG,0.0768
10,ATGGTCAC,0.0895
11,ATGCTTTA,0.0791
12,CGTGATCA,0.0962
13,GACCAAGC,0.0685
14,GTAAACGA,0.0724
15,CTAAATGA,0.0758
16,AGTAAGCA,0.0767
17,CCACGACG,0.0811
18,AGGTAACG,0.0775
19,GGGAAACC,0.076
20,ACTTCAAC,0.0813
21,GATCTGGA,0.0749
22,ACCAATGG,0.0719
23,CAACTCCA,0.0751
24,AAGATGAG,0.0784
25,CCGCACAC,0.0862

row,Sequence,binding signal (normalized occupancy)
1,GTGCATCA,0.0868
2,AGCCTACC,0.0726
3,AGAATAAT,0.0792
4,CAAAGCAC,0.0759
5,ACAGTTAA,0.0744
6,AATTCTAG,0.0761
7,ACTAGCTG,0.0709
8,AGCGATGG,0.0684
9,GTCAGCAC,0.0806
10,CCTCGACG,0.071
11,AGTCGATC,0.074
12,GCATCTCA,0.0766
13,TGCTCCAA,0.0769
14,GCCGTCCA,0.0723
15,CACCGTCA,0.0755
16,AGCGCGGG,0.0733
17,CCCTGCAC,0.0795
18,AGCACTGG,0.0724
19,ATCCCTCA,0.0759
20,ATCTTAAC,0.0765
21,ACTATTAC,0.0758
22,AAACTGTG,0.0711
23,GCTATCCA,0.0767
24,AGGATCCT,0.0763
25,CATTTTAC,0.0853

row,Sequence,binding signal (normalized occupancy)
1,CCCATAAG,0.0856
2,GACCGGAA,0.07
3,CTGCCAAC,0.0738
4,AGCTTCCA,0.0684
5,ACGTAGTA,0.0731
6,TACGCGCA,0.0698
7,GAACATAC,0.0829
8,ACGAGTAC,0.0776
9,GGAACAAA,0.0751
10,AGCACGTC,0.081
11,CACTCAGA,0.0715
12,GAATTTCC,0.0774
13,ACGTCCCC,0.0762
14,CGCCAATC,0.0773
15,AATGACAC,0.0851
16,ACTTTTAG,0.0748
17,GACAGGCC,0.0674
18,GCCCCGAA,0.0675
19,TATTTCGA,0.0728
20,GAGCTCAC,0.0749
21,CGAGCAGA,0.0731
22,CGCGCGCA,0.075
23,CTATGCCC,0.0777
24,GCTCGGCC,0.0691
25,AATGCCCT,0.0732

row,Sequence,binding signal (normalized occupancy)
1,CCACCGGA,0.0726
2,ACACGACA,0.0868
3,GGTTCTTA,0.0765
4,GATCCTGC,0.0757
5,ATGAGTTG,0.0815
6,TCTACAAA,0.0761
7,ACGCTGAC,0.0735
8,TGATTACA,0.0866
9,ACCTCGCC,0.0753
10,ACGCTACA,0.0851
11,CTAGAGGA,0.0698
12,AAGTTCAG,0.0751
13,AGCTTGCG,0.0673
14,CCTTAAGA,0.0718
15,CGGTCTAG,0.0714
16,CATTATCG,0.0801
17,AGACCATA,0.0835
18,ATCGCGTG,0.127
19,GAATACGC,0.0755
20,GTCGCAAA,0.0719
21,GACGCAAC,0.0699
22,CATAAGTC,0.0755
23,CGGTACAG,0.076
24,CATCGCAC,0.0759
25,CGTACTAA,0.0739

row,Sequence,binding signal (normalized occupancy)
1,TGAGGACA,0.0814
2,AGCTTCAC,0.0698
3,GAACTAAC,0.0734
4,TAATTAAA,0.0737
5,CACAGGAG,0.0742
6,GCAGGCTA,0.0693
7,CTACGTCC,0.0761
8,CCCATGGG,0.0962
9,AGGTTGTA,0.0784
10,GTGTGGGA,0.0899
11,GACCCTAA,0.0767
12,CTACACCC,0.0821
13,AACGCGTG,0.123
14,CTCTCACC,0.0788
15,AGGTACGC,0.0714
16,CTCAAATA,0.0761
17,GAACACCC,0.0745
18,AGCACGCT,0.104
19,GTAGCATA,0.0838
20,ACAATTAA,0.0764
21,CATTGGGC,0.0743
22,CCGAGAAG,0.0697
23,CTAGGCGC,0.0714
24,GATCAGCA,0.0754
25,GAGTGTTA,0.0743

row,Sequence,binding signal (normalized occupancy)
1,GATCTTAA,0.0825
2,ATGTGAGA,0.0969
3,CGAGTCCC,0.0698
4,ACGACCGG,0.0708
5,AAAGGGTG,0.0758
6,ACTCGCGC,0.0737
7,AGCTTTTA,0.0712
8,GCGCACCC,0.0755
9,CGCTATTC,0.0779
10,TGGGTTAA,0.0771
11,AACTCGAC,0.0723
12,CCCGCCCC,0.0823
13,AGTGAGAT,0.0784
14,AAGTGCGG,0.072
15,ATACCTTA,0.0767
16,AGGACCCA,0.0706
17,CGTGTAAG,0.0872
18,AATGATGT,0.083
19,ATGCGTCA,0.0864
20,GCCATTCA,0.0744
21,CCAAGGAC,0.0696
22,CAAGGGAC,0.0675
23,CGCACTAA,0.0689
24,CCGTTAGG,0.0694
25,CTGGGCGA,0.0713

row,Sequence,binding signal (normalized occupancy)
1,AATGTGAT,0.101
2,GACTCTGA,0.0713
3,CGTCCCTC,0.0698
4,ACTCACTC,0.0763
5,AAAAGAAT,0.0743
6,ACGGCCAA,0.0702
7,GCTGTCTA,0.0732
8,CTTCGGTC,0.0659
9,GGGGAATA,0.0817
10,ACTAGGTG,0.0768
11,AGGGACAG,0.0738
12,ACAAACAA,0.0739
13,AGACTAAA,0.071
14,ATCTTAAT,0.0786
15,ACGAACCA,0.0719
16,CTGTACAG,0.0706
17,ACCGCGCA,0.0785
18,ACCACAGC,0.0746
19,ACCCCCCG,0.0817
20,ACCCGACG,0.0712
21,ATTTGTCA,0.0789
22,ACACAAAA,0.0728
23,TAATACTA,0.0779
24,CAGACCAA,0.0706
25,AGAAGCGA,0.0704

row,Sequence,binding signal (normalized occupancy)
1,ATAGTGGC,0.0793
2,CGGGATGC,0.0773
3,ATTGGCGC,0.0745
4,TCCGGAGA,0.0755
5,AACGTCTC,0.0749
6,AGGCCCGG,0.064
7,ACTGGGAT,0.0742
8,CAGCATGG,0.13
9,GGGGGAAC,0.0787
10,ACCAGGCT,0.0767
11,ACCTCGTG,0.156
12,AAAAGGGC,0.0656
13,CACCACTG,0.0775
14,AGTTCCGG,0.066
15,ATCCATCA,0.0851
16,ACGAGGAC,0.0874
17,AGAAAACG,0.0753
18,GCCACTCA,0.0767
19,CGAACCAG,0.0693
20,GCCAACAA,0.0774
21,GCGGGAAA,0.0679
22,GCTCCTGA,0.0681
23,AGGTGCCC,0.0727
24,ACGAAATC,0.0781
25,AATTAATC,0.0741

row,Sequence,binding signal (normalized occupancy)
1,AGCAACGG,0.0727
2,AACGCCAA,0.0782
3,ATTCATCC,0.0779
4,CACCAACG,0.0773
5,AACACGTA,0.083
6,AACTGTAG,0.0714
7,ATTGAAAA,0.0765
8,ACGTACTC,0.077
9,CGGTTACA,0.0735
10,AGGGCTTA,0.0711
11,ACTGCAGC,0.0737
12,ACGAGTAT,0.0802
13,TCCGCAGA,0.0666
14,CGCGTACC,0.0717
15,GGGCGCGA,0.07
16,GCATATGC,0.0998
17,CTTCAGGA,0.0691
18,CTTATGAA,0.0827
19,CGACAGTC,0.0692
20,GCAGCAAC,0.0702
21,ACGAACTG,0.0714
22,CAACAGAG,0.0679
23,GCAGTAGA,0.0711
24,CACGGTCC,0.072
25,AACCGCCC,0.0689

row,Sequence,binding signal (normalized occupancy)
1,CAACTCAA,0.0746
2,CGACTCAC,0.0786
3,CGCGCGTC,0.075
4,ATCGAAAA,0.0724
5,CGGATTGC,0.0705
6,CCATGGTA,0.0851
7,GAGGACCA,0.0781
8,CTAGCTCA,0.0759
9,CTAGGCGA,0.07
10,TGCGCTAA,0.08
11,CCGGATTC,0.0748
12,CGTTCCCA,0.0785
13,AATGTATG,0.0889
14,AGCAATGA,0.0743
15,CGCCTCCG,0.0688
16,AAACCTCC,0.0721
17,CCAGCGCG,0.0739
18,TCAAGGCA,0.0748
19,GCGTTCCC,0.0725
20,GATTGCAA,0.0727
21,AAAGGAAG,0.0688
22,ACGACTAT,0.0774
23,TGTACCAA,0.0764
24,ATAGCTTG,0.0718
25,TACTCTAA,0.0763

row,Sequence,binding signal (normalized occupancy)
1,AAATGCTT,0.0744
2,CCACTTCC,0.0703
3,ACCCAAGA,0.0765
4,GAATTGCC,0.0732
5,GATCTACC,0.0732
6,GCTTCGCA,0.066
7,GGGGCAAA,0.074
8,GAAACGTC,0.0712
9,CCTTGTAC,0.0764
10,TCCTTTAA,0.0734
11,CTGGATTC,0.0721
12,CAGAGAAA,0.0739
13,ACCGGGAT,0.0741
14,ACGGAAAG,0.0731
15,AATTTTGG,0.0737
16,CCGCTGAG,0.0657
17,CGAAGTAC,0.0733
18,AACCTCTA,0.0738
19,CAGAGGCG,0.071
20,ATAGGGTA,0.0808
21,AGCGCCAG,0.0652
22,CCATGGAA,0.0854
23,ATCTAAAA,0.0753
24,AAGCGACT,0.0719
25,ATTGACTA,0.0737

row,Sequence,binding signal (normalized occupancy)
1,GCGAAGCC,0.0641
2,ATGGCCTG,0.0801
3,GACGATTA,0.0804
4,AGGATGGC,0.0769
5,ATCTTAGA,0.0729
6,ACACTTCG,0.0758
7,CTCCCGTA,0.0741
8,ATATAGTA,0.0877
9,GGGTGACC,0.0751
10,CTGCGGAC,0.0697
11,CCATCTGC,0.0812
12,AAGCCCCG,0.072
13,ATTGCCGA,0.0726
14,TTCCAAAA,0.0781
15,GTGTAAAA,0.0873
16,ACTACTTA,0.0707
17,ACTCCAGC,0.072
18,ACTATTTC,0.0778
19,ACTGATCT,0.0763
20,CGTTCTCC,0.0832
21,ACTAGACC,0.0763
22,AGGAGCAG,0.0707
23,ATTAGCGG,0.0719
24,AGTTAGAC,0.0693
25,ACCAGGCC,0.0726

row,Sequence,binding signal (normalized occupancy)
1,AAACAGAG,0.0695
2,TATGCAGA,0.0804
3,AGTTGGCC,0.0702
4,AGATCGGA,0.0756
5,CATGAATC,0.082
6,ACGTATTA,0.0818
7,CCACATAC,0.0822
8,AAGGTGTA,0.0773
9,AGATTATA,0.0768
10,TCACAGAA,0.0717
11,AGTACTCC,0.0715
12,CAGCCAAC,0.0804
13,CCGCGAAA,0.0734
14,GTTTGGGA,0.0746
15,CCAGTATA,0.0771
16,ACCTAAAA,0.0747
17,GCCCAGGA,0.0678
18,GGGAGTCA,0.0757
19,AGCACTGA,0.0719
20,CACTACAG,0.0737
21,AAGTTCAA,0.0758
22,ATTGGTAA,0.0709
23,CTGAGCAC,0.0748
24,CTATGCAA,0.0829
25,ATATGAAG,0.0765

row,Sequence,binding signal (normalized occupancy)
1,GCCGACCC,0.0709
2,GAAGTGAC,0.0733
3,GGTCGGTA,0.0767
4,TAAGAGGA,0.076
5,CGACACAG,0.0724
6,CCCTGCTA,0.0683
7,AAGAAAGA,0.0736
8,CCGTAACA,0.0788
9,TGGCTTAA,0.073
10,ACCCGTAA,0.0742
11,CTGGGCTC,0.0683
12,CGAGCTCA,0.0739
13,ACTATCGA,0.0764
14,ACCAGATC,0.0785
15,AGTTGAAT,0.0699
16,AGTACCGC,0.0733
17,AATGTTCT,0.0716
18,AAATTGTT,0.0739
19,GGCGTATA,0.0747
